{"source": "the supplement of paper PMC11876631", "proteins": {"B1": {"name": "ispG L227D (protein)", "chain": "MHNQAPIQRRKSTRIYVGNVPIGDGAPIAVQSMTNTRTTDVEATVNQIKALERVGADIVRVSVPTMDAAEAFKLIKQQVNVPLVADIHFDYRIALKVAEYGVDCLRINPGNIGNEERIRMVVDCARDKNIPIRIGVNAGSLEKDLQEKYGEPTPQALLESAMRHVDHLDRLNFDQFKVSVKASDVFLAVESYRLLAKQIDQPLHLGITEAGGARSGAVKSAIGLGLDLSEGIGDTLRVSLAADPVEEIKVGFDILKSLRIRSRGINFIACPTCSRQEFDVIGTVNALEQRLEDIITPMDVSIIGCVVNGPGEALVSTLGVTGGNKKSGLYEDGVRKDRLDNNDMIDQLEARIRAKASQLDEARRIDVQQVEK"}, "B2": {"name": "ispG L227P (protein)", "chain": "MHNQAPIQRRKSTRIYVGNVPIGDGAPIAVQSMTNTRTTDVEATVNQIKALERVGADIVRVSVPTMDAAEAFKLIKQQVNVPLVADIHFDYRIALKVAEYGVDCLRINPGNIGNEERIRMVVDCARDKNIPIRIGVNAGSLEKDLQEKYGEPTPQALLESAMRHVDHLDRLNFDQFKVSVKASDVFLAVESYRLLAKQIDQPLHLGITEAGGARSGAVKSAIGLGLPLSEGIGDTLRVSLAADPVEEIKVGFDILKSLRIRSRGINFIACPTCSRQEFDVIGTVNALEQRLEDIITPMDVSIIGCVVNGPGEALVSTLGVTGGNKKSGLYEDGVRKDRLDNNDMIDQLEARIRAKASQLDEARRIDVQQVEK"}, "B3": {"name": "aroA L92A (protein)", "chain": "MESLTLQPIARVDGTINLPGSKSVSNRALLLAALAHGKTVLTNLLDSDDVRHMLNALTALGVSYTLSADRTRCEIIGNGGPLHAEGALELFAGNAGTAMRPLAAALCLGSNDIVLTGEPRMKERPIGHLVDALRLGGAKITYLEQENYPPLRLQGGFTGGNVDVDGSVSSQFLTALLMTAPLAPEDTVIRIKGDLVSKPYIDITLNLMKTFGVEIENQHYQQFVVKGGQSYQSPGTYLVEGDASSASYFLAAAAIKGGTVKVTGIGRNSMQGDIRFADVLEKMGATICWGDDYISCTRGELNAIDMDMNHIPDAAMTIATAALFAKGTTTLRNIYNWRVKETDRLFAMATELRKVGAEVEEGHDYIRITPPEKLNFAEIATYNDHRMAMCFSLVALSDTPVTILDPKCTAKTFPDYFEQLARISQAA"}, "B4": {"name": "kdsA I112A (protein)", "chain": "MKQKVVSIGDINVANDLPFVLFGGMNVLESRDLAMRICEHYVTVTQKLGIPYVFKASFDKANRSSIHSYRGPGLEEGMKIFQELKQTFGVKIITDVHEPSQAQPVADVVDVAQLPAFLARQTDLVEAMAKTGAVINVKKPQFVSPGQMGNIVDKFKEGGNEKVILCDRGANFGYDNLVVDMLGFSIMKKVSGNSPVIFDVTHALQCRDPFGAASGGRRAQVAELARAGMAVGLAGLFIEAHPDPEHAKCDGPSALPLAKLEPFLKQMKAIDDLVKGFEELDTSK"}, "B5": {"name": "kdsA I112Q (protein)", "chain": "MKQKVVSIGDINVANDLPFVLFGGMNVLESRDLAMRICEHYVTVTQKLGIPYVFKASFDKANRSSIHSYRGPGLEEGMKIFQELKQTFGVKIITDVHEPSQAQPVADVVDVQQLPAFLARQTDLVEAMAKTGAVINVKKPQFVSPGQMGNIVDKFKEGGNEKVILCDRGANFGYDNLVVDMLGFSIMKKVSGNSPVIFDVTHALQCRDPFGAASGGRRAQVAELARAGMAVGLAGLFIEAHPDPEHAKCDGPSALPLAKLEPFLKQMKAIDDLVKGFEELDTSK"}, "B6": {"name": "kdsA V96A (protein)", "chain": "MKQKVVSIGDINVANDLPFVLFGGMNVLESRDLAMRICEHYVTVTQKLGIPYVFKASFDKANRSSIHSYRGPGLEEGMKIFQELKQTFGVKIITDAHEPSQAQPVADVVDVIQLPAFLARQTDLVEAMAKTGAVINVKKPQFVSPGQMGNIVDKFKEGGNEKVILCDRGANFGYDNLVVDMLGFSIMKKVSGNSPVIFDVTHALQCRDPFGAASGGRRAQVAELARAGMAVGLAGLFIEAHPDPEHAKCDGPSALPLAKLEPFLKQMKAIDDLVKGFEELDTSK"}, "B7": {"name": "kdsA V200P (protein)", "chain": "MKQKVVSIGDINVANDLPFVLFGGMNVLESRDLAMRICEHYVTVTQKLGIPYVFKASFDKANRSSIHSYRGPGLEEGMKIFQELKQTFGVKIITDVHEPSQAQPVADVVDVIQLPAFLARQTDLVEAMAKTGAVINVKKPQFVSPGQMGNIVDKFKEGGNEKVILCDRGANFGYDNLVVDMLGFSIMKKVSGNSPVIFDPTHALQCRDPFGAASGGRRAQVAELARAGMAVGLAGLFIEAHPDPEHAKCDGPSALPLAKLEPFLKQMKAIDDLVKGFEELDTSK"}, "B8": {"name": "kdsB V5A (protein)", "chain": "MSFVAIIPARYASTRLPGKPLVDINGKPMIVHVLERARESGAERIIVATDHEDVARAVEAAGGEVCMTRADHQSGTERLAEVVEKCAFSDDTVIVNVQGDEPMIPATIIRQVADNLAQRQVGMATLAVPIHNAEEAFNPNAVKVVLDAEGYALYFSRATIPWDRDRFAEGLETVGDNFLRHLGIYGYRAGFIRRYVNWQPSPLEHIEMLEQLRVLWYGEKIHVAVAQEVPGTGVDTPEDLERVRAEMR"}, "B9": {"name": "aroA F391A (protein)", "chain": "MESLTLQPIARVDGTINLPGSKSVSNRALLLAALAHGKTVLTNLLDSDDVRHMLNALTALGVSYTLSADRTRCEIIGNGGPLHAEGALELFLGNAGTAMRPLAAALCLGSNDIVLTGEPRMKERPIGHLVDALRLGGAKITYLEQENYPPLRLQGGFTGGNVDVDGSVSSQFLTALLMTAPLAPEDTVIRIKGDLVSKPYIDITLNLMKTFGVEIENQHYQQFVVKGGQSYQSPGTYLVEGDASSASYFLAAAAIKGGTVKVTGIGRNSMQGDIRFADVLEKMGATICWGDDYISCTRGELNAIDMDMNHIPDAAMTIATAALFAKGTTTLRNIYNWRVKETDRLFAMATELRKVGAEVEEGHDYIRITPPEKLNFAEIATYNDHRMAMCASLVALSDTPVTILDPKCTAKTFPDYFEQLARISQAA"}, "B10": {"name": "kdsB V5Q (protein)", "chain": "MSFVQIIPARYASTRLPGKPLVDINGKPMIVHVLERARESGAERIIVATDHEDVARAVEAAGGEVCMTRADHQSGTERLAEVVEKCAFSDDTVIVNVQGDEPMIPATIIRQVADNLAQRQVGMATLAVPIHNAEEAFNPNAVKVVLDAEGYALYFSRATIPWDRDRFAEGLETVGDNFLRHLGIYGYRAGFIRRYVNWQPSPLEHIEMLEQLRVLWYGEKIHVAVAQEVPGTGVDTPEDLERVRAEMR"}, "B11": {"name": "kdsB V5P (protein)", "chain": "MSFVPIIPARYASTRLPGKPLVDINGKPMIVHVLERARESGAERIIVATDHEDVARAVEAAGGEVCMTRADHQSGTERLAEVVEKCAFSDDTVIVNVQGDEPMIPATIIRQVADNLAQRQVGMATLAVPIHNAEEAFNPNAVKVVLDAEGYALYFSRATIPWDRDRFAEGLETVGDNFLRHLGIYGYRAGFIRRYVNWQPSPLEHIEMLEQLRVLWYGEKIHVAVAQEVPGTGVDTPEDLERVRAEMR"}, "B12": {"name": "kdsB V47A (protein)", "chain": "MSFVVIIPARYASTRLPGKPLVDINGKPMIVHVLERARESGAERIIAATDHEDVARAVEAAGGEVCMTRADHQSGTERLAEVVEKCAFSDDTVIVNVQGDEPMIPATIIRQVADNLAQRQVGMATLAVPIHNAEEAFNPNAVKVVLDAEGYALYFSRATIPWDRDRFAEGLETVGDNFLRHLGIYGYRAGFIRRYVNWQPSPLEHIEMLEQLRVLWYGEKIHVAVAQEVPGTGVDTPEDLERVRAEMR"}, "B13": {"name": "kdsB V82A (protein)", "chain": "MSFVVIIPARYASTRLPGKPLVDINGKPMIVHVLERARESGAERIIVATDHEDVARAVEAAGGEVCMTRADHQSGTERLAEAVEKCAFSDDTVIVNVQGDEPMIPATIIRQVADNLAQRQVGMATLAVPIHNAEEAFNPNAVKVVLDAEGYALYFSRATIPWDRDRFAEGLETVGDNFLRHLGIYGYRAGFIRRYVNWQPSPLEHIEMLEQLRVLWYGEKIHVAVAQEVPGTGVDTPEDLERVRAEMR"}, "B14": {"name": "kdsB I94A (protein)", "chain": "MSFVVIIPARYASTRLPGKPLVDINGKPMIVHVLERARESGAERIIVATDHEDVARAVEAAGGEVCMTRADHQSGTERLAEVVEKCAFSDDTVAVNVQGDEPMIPATIIRQVADNLAQRQVGMATLAVPIHNAEEAFNPNAVKVVLDAEGYALYFSRATIPWDRDRFAEGLETVGDNFLRHLGIYGYRAGFIRRYVNWQPSPLEHIEMLEQLRVLWYGEKIHVAVAQEVPGTGVDTPEDLERVRAEMR"}, "B15": {"name": "kdsB I46A (protein)", "chain": "MSFVVIIPARYASTRLPGKPLVDINGKPMIVHVLERARESGAERIAVATDHEDVARAVEAAGGEVCMTRADHQSGTERLAEVVEKCAFSDDTVIVNVQGDEPMIPATIIRQVADNLAQRQVGMATLAVPIHNAEEAFNPNAVKVVLDAEGYALYFSRATIPWDRDRFAEGLETVGDNFLRHLGIYGYRAGFIRRYVNWQPSPLEHIEMLEQLRVLWYGEKIHVAVAQEVPGTGVDTPEDLERVRAEMR"}}, "note": "± gives the standard deviation of the averaged measurements. Laboratory Escherichia coli strains with one amino-acid change in an essential protein, pooled on minimal glucose agar with carbenicillin or gentamicin at twice the control MIC (plus kanamycin and chloramphenicol for the plasmids), 48 h. Fold change of barcode share against drug-free plates; higher = less susceptible. Active = above 20 in both replicates (the paper's putatively resistant). '<' = one read or none on drug, '>' = one read or none on a drug-free plate. Shares are relative, so most strains fall below 1 when a few take over. Listed are strains with at least 15 reads on both drug-free plates, and hits; most hits rest on fewer reference reads. Replicate rank correlation about 0.5. Edits are read from barcodes.", "data": [{"target": "Escherichia coli (laboratory strain)", "assay": "barcode share on antibiotic plates over drug-free plates; higher = less susceptible", "conditions": "antibiotic: carbenicillin; 2× MIC (3.1 µg/mL)", "procedure": "(§1)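 A pool of E. coli strains, each edited to carry one amino-acid change in an essential protein, was grown for 48 h on minimal glucose agar with or without antibiotic; strain barcodes were sequenced; mean of two replicates.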", "values": [{"protein": "B1", "fold change of barcode share": "0.258 ± 0.015"}, {"protein": "B2", "fold change of barcode share": "0.538 ± 0.23"}, {"protein": "B3", "fold change of barcode share": "0.536 ± 0.22"}, {"protein": "B4", "fold change of barcode share": "0.322 ± 0.019"}, {"protein": "B5", "fold change of barcode share": "0.286 ± 0.095"}, {"protein": "B6", "fold change of barcode share": "0.467 ± 0.36"}, {"protein": "B7", "fold change of barcode share": "0.228 ± 0.057"}, {"protein": "B8", "fold change of barcode share": "0.178 ± 0.0075"}, {"protein": "B9", "fold change of barcode share": "0.583 ± 0.14"}, {"protein": "B10", "fold change of barcode share": "0.611 ± 0.086"}, {"protein": "B11", "fold change of barcode share": "0.277 ± 0.047"}, {"protein": "B12", "fold change of barcode share": "0.348 ± 0.21"}, {"protein": "B13", "fold change of barcode share": "0.351 ± 0.056"}, {"protein": "B14", "fold change of barcode share": "0.43 ± 0.12"}, {"protein": "B15", "fold change of barcode share": "0.264 ± 0.19"}]}, {"target": "Escherichia coli (laboratory strain)", "assay": "barcode share on antibiotic plates over drug-free plates; higher = less susceptible", "conditions": "antibiotic: gentamicin; 2× MIC (MIC 0.45 µg/mL)", "procedure": "as §1", "values": [{"protein": "B1", "fold change of barcode share": "< 0.0102"}, {"protein": "B2", "fold change of barcode share": "0.0549 ± 0.073"}, {"protein": "B3", "fold change of barcode share": "< 0.012"}, {"protein": "B5", "fold change of barcode share": "< 0.00373"}, {"protein": "B6", "fold change of barcode share": "< 0.00679"}, {"protein": "B8", "fold change of barcode share": "0.004838 ± 1.1e-05"}, {"protein": "B11", "fold change of barcode share": "0.124 ± 0.15"}, {"protein": "B12", "fold change of barcode share": "< 0.0126"}, {"protein": "B13", "fold change of barcode share": "0.00572 ± 0.005"}, {"protein": "B14", "fold change of barcode share": "< 0.00429"}, {"protein": "B15", "fold change of barcode share": "< 0.00728"}]}]}
